# Assay results reported in PubChem BioAssay (Tox21).
# Several values for one entry are separate records, joined by “and”; a condition that tells them apart may be missing. Equal entries are not always repeated. The shares of active, inactive and inconclusive entries below differ from those in the screen. For part of these data: Where the call is inconclusive, the potency comes from a doubtful curve fit. Activity calls are given as the source filed them. Unless noted, calls follow the shape of the dose curve; as a rule, active = well fitted curve in the direction sought with a large enough effect in the repeat runs; inconclusive = weak or mixed curves; inactive = no such curve, though single readings can be large; an effect the other way counts as inactive or inconclusive.
# How the values were obtained:
# [1] = qHTS assay for small molecule agonists of the antioxidant response element (ARE) signaling pathway (AID 743202; active = well fitted activation curve with a large enough effect in the signal ratio in the repeat runs, not every such curve was filed as active; inconclusive = weak or mixed curves, or effect the other way; inactive = no such curve, though single readings can be large or run the other way; the % refers to the signal ratio; also: potency is read from the fitted curve at half-maximal effect); conditions: HepG2 ARE-bla reporter, beta-lactamase FRET, 16 h
# How it was run: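 An ARE-responsive beta-lactamase gene stably integrated in HepG2 cells serves as reporter. After 5 h plating and 16 h compound incubation at 37 C, fluorescence of the B/G FRET substrate was measured.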
# [2] = biological target: Vitamin D3 receptor (Homo sapiens) (UniProt P11473); experiment: qHTS assay to identify small molecule antagonists of the vitamin D receptor (VDR) signaling pathway (AID 743223; active = well fitted inhibition curve with a large enough effect in the signal ratio in the repeat runs, not every such curve was filed as active; inconclusive = weak or mixed curves, or effect the other way; inactive = no such curve, though single readings can be large or run the other way; the % refers to the signal ratio; also: potency is read from the fitted curve at half-maximal effect); conditions: VDR-UAS-bla HEK293T, beta-lactamase FRET ratio, 16 h
# Chain of UniProt P11473 (P11473 whole entry, looked up): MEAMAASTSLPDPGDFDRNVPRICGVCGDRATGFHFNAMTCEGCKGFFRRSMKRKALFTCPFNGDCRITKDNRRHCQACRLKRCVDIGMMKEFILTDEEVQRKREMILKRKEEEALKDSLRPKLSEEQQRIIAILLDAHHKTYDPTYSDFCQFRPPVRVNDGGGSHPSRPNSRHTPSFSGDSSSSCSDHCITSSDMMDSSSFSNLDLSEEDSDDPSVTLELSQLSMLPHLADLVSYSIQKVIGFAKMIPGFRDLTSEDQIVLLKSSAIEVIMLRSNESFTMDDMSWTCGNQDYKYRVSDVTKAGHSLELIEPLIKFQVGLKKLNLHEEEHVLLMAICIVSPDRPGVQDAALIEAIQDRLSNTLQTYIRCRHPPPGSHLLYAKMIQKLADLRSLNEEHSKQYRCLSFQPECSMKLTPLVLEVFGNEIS
# How it was run: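 Antagonist mode: compound added to VDR-bla cells alongside agonist 1alpha,25-dihydroxyvitamin D3 (3 nM final), incubation 16 h at 37C. Read-out is LiveBLAzer FRET fluorescence, 2 h at room temperature.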
# [3] = qHTS assay for small molecule activators of the heat shock response signaling pathway - cell viability counter screen (AID 743209); conditions: HSE-bla HeLa viability, CellTiter-Glo luminescence, 5 h; activity change, negative = cytotoxicity: at 62.6 µM (top of the series) unless noted; also: potency is read from the fitted curve at half-maximal effect; nearly all actives have a fitted effect of over 50% in size
# How it was run: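 CellSensor HSE-bla HeLa cells, plated overnight at 37 C/5% CO2, were exposed to compounds in DMSO for 5 h at 37 C. Viability was then read in the same wells by CellTiter-Glo luminescence after 30 min at room temperature.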
# [4] = qHTS assay to identify small molecule antagonists of the peroxisome proliferator-activated receptor delta (PPARd) signaling pathway - cell viability counter screen (AID 743213); conditions: PPARd-bla HEK293H viability, CellTiter-Glo luminescence, 17 h; viability change, negative = cytotoxic: at 62 µM (top of the series) unless noted; also: potency is read from the fitted curve at half-maximal effect; nearly all actives have a fitted effect of over 50% in size
# How it was run: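 HEK293H cells with the PPARd UAS-bla reporter, co-treated 17 h at 37 C with compounds and L165041 (300 nM final), were lysed with CellTiter-Glo. Luminescence indicated viable cell content.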
# [5] = qHTS assay to identify small molecule agonists of the farnesoid-X-receptor (FXR) signaling pathway - cell viability counter screen (AID 743218); conditions: FXR-bla HEK293T viability, CellTiter-Glo luminescence, 16 h; viability change, negative = cytotoxic: at 62.6 µM (top of the series) unless noted; also: potency is read from the fitted curve at half-maximal effect; nearly all actives have a fitted effect of over 45% in size
# How it was run: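 FXR-UAS-bla HEK 293T cells, plated 5 h at 37 C, were exposed to compounds for 16 h at 37 C. CellTiter-Glo was then added to the same wells as the bla readout; luminescence read after 30 min at room temperature.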
# [6] = qHTS assay for small molecule activators of the heat shock response signaling pathway (AID 743210; active = well fitted activation curve with a large enough effect in the signal ratio in the repeat runs, with a control signal flat, not every such curve was filed as active; inconclusive = weak or mixed curves; the % refers to the signal ratio;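 also: HeLa cells with beta-lactamase reporter driven by heat shock elements; % is scaled to controls: 0 for no effect and ±100 for the full control effect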); conditions: HeLa HSE-bla reporter, beta-lactamase ratio, 5 h; activation: at 62.6 µM (top of the series)
# How it was run: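 In HSE-bla HeLa cells, 5 h compound incubation (37 C) precedes addition of LiveBLAzer B/G substrate; after 2.5 h at room temperature, fluorescence intensity indicates reporter induction.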
# [7] = biological target: Peroxisome proliferator-activated receptor delta (Homo sapiens) (UniProt Q03181); experiment: qHTS assay to identify small molecule antagonists of the peroxisome proliferator-activated receptor delta (PPARd) signaling pathway (AID 743215; active = well fitted inhibition curve with a large enough effect in the signal ratio in the repeat runs, not every such curve was filed as active; inconclusive = weak or mixed curves, or effect the other way; inactive = no such curve, though single readings can be large or run the other way; the % refers to the signal ratio;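 also: cells stimulated with agonist L165041 at 300 nM final during compound exposure; % is scaled to controls: 0 for no effect and ±100 for the full control effect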); conditions: HEK293H PPARd-UAS-bla, beta-lactamase FRET ratio, antagonist, 17 h
# Chain of UniProt Q03181 (Q03181 whole entry, looked up): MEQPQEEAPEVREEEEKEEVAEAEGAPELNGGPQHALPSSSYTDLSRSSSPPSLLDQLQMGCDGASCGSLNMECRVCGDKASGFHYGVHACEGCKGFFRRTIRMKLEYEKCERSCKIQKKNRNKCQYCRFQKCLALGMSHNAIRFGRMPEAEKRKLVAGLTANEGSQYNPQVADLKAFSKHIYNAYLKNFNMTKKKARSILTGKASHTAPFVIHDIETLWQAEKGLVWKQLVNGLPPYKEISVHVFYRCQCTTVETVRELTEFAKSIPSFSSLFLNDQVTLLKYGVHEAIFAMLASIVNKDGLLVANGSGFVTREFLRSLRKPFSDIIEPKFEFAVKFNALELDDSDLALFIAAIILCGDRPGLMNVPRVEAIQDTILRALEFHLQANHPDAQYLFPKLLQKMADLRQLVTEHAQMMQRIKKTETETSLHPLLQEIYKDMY
# How it was run: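 PPARd UAS-bla HEK293H cells were pre-incubated 5 h at 37 C, then given test compounds in DMSO plus agonist L165041 (300 nM final). After 17 h at 37 C, beta-lactamase FRET substrate was added; fluorescence read after 2 h at room temperature.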
# [8] = biological target: Bile acid receptor (Homo sapiens) (UniProt Q96RI1); experiment: qHTS assay to identify small molecule antagonists of the farnesoid-X-receptor (FXR) signaling pathway (AID 743217; active = well fitted inhibition curve with a large enough effect in the signal ratio in the repeat runs, not every such curve was filed as active; inconclusive = weak or mixed curves, or effect the other way; inactive = no such curve, though single readings can be large or run the other way; the % refers to the signal ratio; also: % is scaled to controls: 0 for no effect and ±100 for the full control effect); conditions: HEK293T FXR-UAS-bla, beta-lactamase ratio, CDCA-stimulated, 16 h; activity change, negative = inhibition: at 62.6 µM (top of the series) unless noted
# Chain of UniProt Q96RI1 (Q96RI1 whole entry, looked up): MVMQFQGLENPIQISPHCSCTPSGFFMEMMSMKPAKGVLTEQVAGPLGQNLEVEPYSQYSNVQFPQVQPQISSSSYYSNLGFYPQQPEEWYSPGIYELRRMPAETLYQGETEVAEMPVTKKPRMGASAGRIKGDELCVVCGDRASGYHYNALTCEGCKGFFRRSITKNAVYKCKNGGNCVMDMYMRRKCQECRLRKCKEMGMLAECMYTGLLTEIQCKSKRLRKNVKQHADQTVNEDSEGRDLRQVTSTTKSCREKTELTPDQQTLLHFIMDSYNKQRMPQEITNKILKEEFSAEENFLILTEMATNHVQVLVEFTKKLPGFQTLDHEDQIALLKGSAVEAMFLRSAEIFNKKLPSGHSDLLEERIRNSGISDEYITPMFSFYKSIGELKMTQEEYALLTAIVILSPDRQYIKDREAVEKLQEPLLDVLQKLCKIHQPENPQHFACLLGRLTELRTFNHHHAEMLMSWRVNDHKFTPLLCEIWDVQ
# How it was run: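 FXR-UAS-bla HEK 293T cells pre-incubated 5 h at 37 °C, then exposed to compounds with chenodeoxycholic acid (50 uM final) for 16 h at 37 °C. Beta-lactamase reporter read by LiveBLAzer B/G FRET substrate fluorescence after 2 h at room temperature.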
# [9] = biological target: Vitamin D3 receptor (Homo sapiens) (UniProt P11473); experiment: qHTS assay to identify small molecule agonists of the vitamin D receptor (VDR) signaling pathway (AID 743222; calls by dose curve; also: % is scaled to controls: 0 for no effect and ±100 for the full control effect); conditions: HEK293T VDR-UAS-bla, beta-lactamase FRET ratio, 16 h; activation: at 63.5 µM (top of the series) unless noted
# How it was run: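 VDR-bla cells were plated 4 h at 37C/5% CO2, then exposed to compounds in DMSO for 16 h. After LiveBLAzer B/G FRET substrate addition and 2 h at room temperature, beta-lactamase reporter fluorescence was read.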
# [10] = qHTS assay for small molecule agonists of the antioxidant response element (ARE) signaling pathway - cell viability counter screen (AID 743203; calls by dose curve; also: potency is read from the fitted curve at half-maximal effect; nearly all actives have a fitted effect of over 55% in size); conditions: ARE-bla HepG2 viability, CellTiter-Glo luminescence, 16 h; viability change, negative = cytotoxic: at 73.3 µM (top of the series)
# How it was run: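 CellSensor ARE-bla HepG2 cells, 2,000 per well, rested 5 hrs at 37C/5% CO2, then exposed to compound in DMSO for 16 hrs; viability read as CellTiter-Glo luminescence after 30 min at room temperature, in the reporter wells.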
# [11] = qHTS assay to identify small molecule agonists of the peroxisome proliferator-activated receptor delta (PPARd) signaling pathway - cell viability counter screen (AID 743211); conditions: PPARd-bla HEK293H viability, CellTiter-Glo luminescence, 17 h; activity change, negative = cytotoxicity: at 62.6 µM (top of the series); also: potency is read from the fitted curve at half-maximal effect; nearly all actives have a fitted effect of over 55% in size
# How it was run: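 Viability was measured as CellTiter-Glo luminescence (30 min, room temperature) in the same wells as the beta-lactamase readout. GeneBLAzer PPARd UAS-bla HEK293H cells received compound after 5 h plating and were incubated 17 h at 37 C.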
# [12] = qHTS assay to identify small molecule agonists of the vitamin D receptor (VDR) signaling pathway - cell viability counter screen (AID 743224); conditions: VDR-bla HEK293T viability, CellTiter-Glo luminescence, 16 h; activity change, negative = cytotoxicity: at 62.6 µM (top of the series) unless noted; also: potency is read from the fitted curve at half-maximal effect; nearly all actives have a fitted effect of over 50% in size
# How it was run: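 VDR-bla cells were preincubated 4 h at 37C/5% CO2, then exposed to compounds for 16 h. After the 2 h room-temperature bla FRET read, CellTiter-Glo was added to the same wells and luminescence read after 30 min.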
# [13] = qHTS assay to identify small molecule antagonists of the vitamin D receptor (VDR) signaling pathway - cell viability counter screen (AID 743225); conditions: VDR-bla HEK293T viability, CellTiter-Glo luminescence, 16 h; viability change, negative = cytotoxic: at 61 µM (top of the series) unless noted; also: potency is read from the fitted curve at half-maximal effect; nearly all actives have a fitted effect of over 50% in size
# How it was run: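 Cytotoxicity counter screen read by CellTiter-Glo luminescence (30 min, room temperature) in the same wells as the VDR-bla antagonist readout. HEK 293T VDR-UAS-bla cells had 16 h at 37C with compound and 3 nM (final) 1-alpha,25-dihydroxyvitamin D3, then 2 h with FRET substrate.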
# [14] = biological target: Bile acid receptor (Homo sapiens) (UniProt Q96RI1); experiment: qHTS assay to identify small molecule agonists of the farnesoid-X-receptor (FXR) signaling pathway (AID 743220; active = well fitted activation curve with a large enough effect in the signal ratio in the repeat runs, not every such curve was filed as active; inconclusive = weak or mixed curves, or effect the other way; the % refers to the signal ratio; also: % is scaled to controls: 0 for no effect and ±100 for the full control effect); conditions: HEK293T FXR-UAS-bla, beta-lactamase FRET ratio, 16 h
# How it was run: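 Beta-lactamase reporter under UAS control in GeneBLAzer FXR HEK 293T cells (5000/well) measured with LiveBLAzer FRET substrate after 2 h at room temperature. Compound exposure lasted 16 h at 37C.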
# [15] = activation: at 73.3 µM (top of the series) unless noted
# [16] = activity change, negative = inhibition: at 61 µM (top of the series) unless noted
# Tags tell the direction and shape of the fitted curve or compound fluorescence and quenching.
compound,measurement,setting,value
CC(C)CC(=O)CC(C)C,activation,[1]; [15],inconclusive: -5.4%
same,activation,[1]; at 94.8 µM (top of the series),inactive: -9.37%
same,"activity change, negative = inhibition",[2]; [16],inconclusive: 3.24% [at 78.8 µM]
CCCCC(CC)COC(=O)/C=C/c1ccc(OC)cc1 (stereo not drawn),activation,[1]; [15],inconclusive: 21.3% and inconclusive: -0.272%
same,Potency,[3],"inconclusive: 0.106 µM [cytotoxic, full curve, poor fit]"
same,Potency,[4],"inconclusive: 21.8 µM [rising, partial curve, poor fit] and inconclusive: 2.98 µM [rising, partial curve, poor fit]"
same,Potency,[5],"inconclusive: 24.5 µM [rising, partial curve]"
CC(O)C(=O)O (stereo not drawn),activation,[1]; [15],inconclusive: -7.43%
same,activation,[1]; at 73.3 µM (top of the series),inactive: 2.69% and inactive: 4.34% and inactive: 3.57%
same,activation,[1]; at 94.8 µM (top of the series),inactive: -0.88%
same,Potency,[3],"inconclusive: 11.9 µM [cytotoxic, partial curve]"
same,Potency,[6],inactive
same,"ratio activity, negative = inhibition",[7]; at 62 µM (top of the series),inconclusive: -11.4%
same,"ratio activity, negative = inhibition",[7]; at 80.4 µM (top of the series),inconclusive: 0.275%
same,"activity change, negative = inhibition",[8],inconclusive: 18.9%
same,Potency,[5],"inconclusive: 0.0237 µM [rising, partial curve, poor fit]"
same,Potency,[9],inactive
same,"activity change, negative = inhibition",[2]; at 61 µM (top of the series),inconclusive: 0.299%
same,"activity change, negative = inhibition",[2]; at 78.8 µM (top of the series),inconclusive: 18.6%
Cc1ccc(C(C)(C)C)c(O)c1,Potency,[1]; [15],"inconclusive: 61.1 µM [falling, partial curve, poor fit]"
same,Potency,[10],"inconclusive: 61.1 µM [cytotoxic, single point]"
same,Potency,[11],"inconclusive: 61.6 µM [cytotoxic, single point]"
same,Potency,[9],inactive
same,Potency,[2]; [16],inactive
same,Potency,[12],"inconclusive: 49 µM [cytotoxic, partial curve, poor fit]"
same,Potency,[13],"inconclusive: 49 µM [cytotoxic, partial curve, poor fit]"
Cc1c(N(C)C)c(=O)n(-c2ccccc2)n1C,Potency,[1]; [15],inactive
same,Potency,[8],inactive
same,Potency,[5],"inconclusive: 33.5 µM [rising, partial curve, poor fit]"
same,activation,[14]; activation: at 62.6 µM (top of the series) unless noted,inconclusive: -1.25%
same,activation,[14]; at 62.6 µM (top of the series),inactive: -0.202%
same,activation,[14]; at 81.1 µM (top of the series),inactive: 0.286%
same,Potency,[2]; [16],"inconclusive: 8.71 µM [activator, partial curve, poor fit]"
